In the RNAGym collection of RNA variant scans (doi:10.1073/pnas.2313332121):
Variants at the background level are over-represented here.

B1: TPR 5TU (parent)
chain: GGAUCUUCUCGAUCUAACAAAAAAGACAAAUCUGCCACAAAGCUUGAGAGCAUCUUCGGAUGCAGAGGCGGCAGCCUUCGGUGGCGCGAUAGCGCCAACGUUCUCAACUAUGACACGCAAAACGCGUGCUCCGUUGAAUGGAGUUUAUCAUG

Variants of: B1
Assay: polymerase ribozyme fitness, log enrichment relative to wild type (log ratio); higher = more active; in vitro selection for triplet polymerase activity
Summary of the method: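 PCR was used to build mutant libraries for each subunit of a heterodimeric triplet polymerase ribozyme, which were then transcribed. A single in vitro selection round, in triplicate, used a frozen incubation at −7 °C and recovered extended constructs by gel excision, streptavidin beads and RT-PCR. Fitness is the logarithm of genotype enrichment relative to wild-type enrichment, averaged over replicates with inverse-variance weights. The logarithm is base 2, and after Illumina sequencing only genotypes with ≥10 input reads and ≥1 read per output were kept.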

| Variant | polymerase ribozyme fitness (log ratio) |
| --- | --- |
| A37U G70C C85U G92A | ≤ -4.2 |
| C38A C76G G92C | ≤ -4.2 |
| A37G C57G C75U U78A G83A C103G U146G | ≤ -4.2 |
| A37C G48C G65C G80A A137C | ≤ -4.2 |
| A37U A52C C116G | -2.94 |
| A37C U55G A66U C72U A91G C96U C116A C118G A142U U144A | ≤ -4.2 |
| C38A A49G G50C U56G G143C | ≤ -4.2 |
| A37G C54G A89U A97G A113G U130A | ≤ -4.2 |
| A37G U56A A97G | -2.85 |
| A37C G68C G84C C85U A97U G126U G143C | ≤ -4.2 |
| A37C U56C G68C C85U C99A A150U | ≤ -4.2 |
| C38A G58A A60G C93U C95A C125G | -3.67 |
| A37C G62C G126U A138G A142C | ≤ -4.2 |
| A37G G86U C95G A106U U135A | ≤ -4.2 |
| A37C U56A C57U G94A A113U G143C | ≤ -4.2 |
| A37G A60G C76A C93U A119C G136C | ≤ -4.2 |
| A37G A138U | ≤ -4.2 |
| A37G G70A C72A G92A U109A A115G | ≤ -4.2 |
| A37U A41C C99U G143C | ≤ -4.2 |
| A37U U55G C95G U111C G136A G143A | ≤ -4.2 |
| A37G C105U A107U U130G | ≤ -4.2 |

| Variant | polymerase ribozyme fitness (log ratio) |
| --- | --- |
| A37C G65C C93A C125A G126U G133U U135A G141A A142G | ≤ -4.2 |
| A37G A41U A49G A137G U148G | ≤ -4.2 |
| A37C U127G | -3.83 |
| A37G G42C A47U U55G G68U C87G G152U | ≤ -4.2 |
| A37U A40U A89U C131G | ≤ -4.2 |
| A37G U77G A147C | ≤ -4.2 |
| C38A C105G C118A C129A | ≤ -4.2 |
| A37C U61A C85G A97U A113U | ≤ -4.2 |
| A37C G86C | -3.09 |
| A37C G65C G86C G117A | ≤ -4.2 |
| A37G C123U | -1.8 |
| A37U G42A G88C | ≤ -4.2 |
| C38A C76U | -0.21 |
| A37G C51G A52G U53A A89C G136C A138U | ≤ -4.2 |
| A37G G88C C105U C108A C114A | ≤ -4.2 |
| A37U G74U C95G U102G C105G | ≤ -4.2 |
| A37U C54A U77A C85G U90G C118G A138G | ≤ -4.2 |
| A37G C54U G59C C69U | -1.86 |
| A37G A40G A52C | ≤ -4.2 |
| A37C G48A U56A C76A A91G C96U C103U U127G G133C U151G | ≤ -4.2 |
| A37C G68A A91G C105G U130G A150G | ≤ -4.2 |

| Variant | polymerase ribozyme fitness (log ratio) |
| --- | --- |
| A37G A60G C87U | -1.88 |
| A37U A40C G86U C125U A147U C149G | ≤ -4.2 |
| A37G C87A A113C | ≤ -4.2 |
| A37G G46A G83C U127C U134G | ≤ -4.2 |
| A37C G58C C93U A119G A137C U145A | ≤ -4.2 |
| A37C G83A | -0.102 |
| A37U G70C C87G A137U | ≤ -4.2 |
| A37G G58A A64G G80A U134G | ≤ -4.2 |
| A37U A41G A91U C95U G143C | ≤ -4.2 |
| A37U A49U U55A U56A U127A | ≤ -4.2 |
| C38A A39G G42C | ≤ -4.2 |
| A37G C72U A97G U102G C118U | ≤ -4.2 |
| A37C U56A C85A C99G A107G G124A | ≤ -4.2 |
| A37G G83A C93G G128A U130C U135A A142C | ≤ -4.2 |
| A37U A41G U55G C85U G128U C129U | ≤ -4.2 |
| A37G C38G G83U C118A C123U | -4.05 |
| A37C U44A G80U G81A C85U G100A G128C | ≤ -4.2 |
| A37U C57U A60C C87G C95U C96G A106U G136A G141C | ≤ -4.2 |
| A37C U44G G58C G59C G84A C103U U146A U151G | ≤ -4.2 |
| A37U C57A G70U G71A A137G | ≤ -4.2 |
| C38A A49C G67A C79G | ≤ -4.2 |

| Variant | polymerase ribozyme fitness (log ratio) |
| --- | --- |
| A37G C93G A97C C116A | ≤ -4.2 |
| A37U G74A C93U G133U | ≤ -4.2 |
| A37G G42C C69U C96U G124A G133A | ≤ -4.2 |
| A37C G67U G83A A106U A119C G143C G152A | ≤ -4.2 |
| A37C U82G U148A | ≤ -4.2 |
| A37U A113U C116U G136C | ≤ -4.2 |
| A37G C95U U130G U144C | ≤ -4.2 |
| A37G A52G G84A C93U U127G U146C | ≤ -4.2 |
| A37C G59U C79G C95U | ≤ -4.2 |
| A37C G74A C93A C103G U130A | ≤ -4.2 |
| A37U A64C U135C | ≤ -4.2 |
| A37G U55A G58A A60C A66C C76G G92U G128U U148A A150U | ≤ -4.2 |
| A37C G62U C95A C129A G140C | ≤ -4.2 |
| C38A G67U G81A G84U G141C A147U | ≤ -4.2 |
| A37G A40U A115G A142U | ≤ -4.2 |
| A37U U55G G71U G83U A89U A142C | ≤ -4.2 |
| A37U U90C A122G | ≤ -4.2 |
| C38A G68C U144G | ≤ -4.2 |
| A37U U78G G94U G133U | ≤ -4.2 |
| A37G U53A G94U C114U G140A | ≤ -4.2 |
